The record followed here is patent US20190330336A1 (SUTRO BIOPHARMA, published 2019).

For test [1], the target named is T1, human LAG3 expressed on the cell surface of CHO or HEK293T cells (human, UniProt P18627 23-525).
T1 construct: also called CHO-LAG3; 293T-LAG3
T1 sequence: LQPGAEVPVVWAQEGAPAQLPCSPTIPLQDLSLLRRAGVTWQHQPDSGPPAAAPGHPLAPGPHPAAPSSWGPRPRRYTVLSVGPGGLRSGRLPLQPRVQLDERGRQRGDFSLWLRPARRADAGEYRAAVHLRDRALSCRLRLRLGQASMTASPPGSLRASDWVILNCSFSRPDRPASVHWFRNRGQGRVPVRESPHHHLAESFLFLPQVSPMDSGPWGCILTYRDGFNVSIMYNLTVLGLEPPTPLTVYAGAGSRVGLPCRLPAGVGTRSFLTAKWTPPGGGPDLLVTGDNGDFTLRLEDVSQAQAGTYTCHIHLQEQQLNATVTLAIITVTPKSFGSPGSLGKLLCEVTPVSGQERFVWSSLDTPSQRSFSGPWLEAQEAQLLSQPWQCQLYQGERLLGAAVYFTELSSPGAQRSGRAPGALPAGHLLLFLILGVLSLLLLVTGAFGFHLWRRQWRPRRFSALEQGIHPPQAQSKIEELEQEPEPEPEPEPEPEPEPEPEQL
Kind of test: flow cytometry on CHO cells expressing human LAG3. How it is done:
Antibody variants were tested in a fluorescence-activated cell sorting (FACS) cell-binding assay. Chinese Hamster Ovary (CHO) cells or HEK293T cells stably expressing the human target molecule LAG3 on the cell surface (CHO-LAG3, 293T-LAG3) were used to screen for cell binders by flow cytometry. Parental CHO or 293T cells were used as a negative control to determine background-binding levels. Cells were cultured in RPMI with 10% FCS Penicillin/Streptomycin (or Pen/Strep) and glutamine (or Gln) and split every 3-4 days at 10⁵ cells/ml.
A mix of parental CHO cells and CHO-LAG3 cells (or 293T and 293T-LAG3 cells) was prepared as follows: Parental CHO cells were washed 2× in PBS then incubated in PBS containing 1 nM CellTrace™ Oregon Green488® (Life Technologies) at 37° C. for 30 minutes. […] Parental CHO cells and CHO-LAG3 cells were then mixed to obtain a 1:1 cell suspension and seeded at 100 μl per well on 96 well polypropylene plates. Plates were spun at 1500 rpm for 5 minutes and cell pellets were suspended in 50 μl FACS buffer containing 6-12 point dilutions of anti-LAG3 variants starting from concentrations of ˜100-200 nM antibody, dispensed using BioMekFX (Beckman Coulter). Cells were then incubated on ice for 1 hr, washed with FACS buffer and incubated for 1 hr on ice with 50 μl FACS buffer containing 2.5 μg/ml R-Phycoerythrin-conjugated Goat Anti-Human IgG (Jackson ImmunoResearch) or AF647-conjugated Goat Anti-mouse IgG (Life Technologies) dispensed using BioMekFX (Beckman Coulter). Cells were then washed 2× with FACS buffer and fixed for 10 minutes in 200 μl PBS with 2% PFA prior to fluorescence detection. Samples were acquired using a Beckton Dickinson LSRII FACS. Mean Fluorescence Intensity of LAG3 antibody binding was analyzed using Tree Star, Inc. FlowJo® software.

Test [2] deals with T2, HIS-tagged (ACRO) or biotinylated recombinant human LAG3 protein (human, UniProt P18627 23-450, HIS tag or biotin, position not stated).
T2 construct: Soluble bought protein; also called rhLAG3
T2 sequence: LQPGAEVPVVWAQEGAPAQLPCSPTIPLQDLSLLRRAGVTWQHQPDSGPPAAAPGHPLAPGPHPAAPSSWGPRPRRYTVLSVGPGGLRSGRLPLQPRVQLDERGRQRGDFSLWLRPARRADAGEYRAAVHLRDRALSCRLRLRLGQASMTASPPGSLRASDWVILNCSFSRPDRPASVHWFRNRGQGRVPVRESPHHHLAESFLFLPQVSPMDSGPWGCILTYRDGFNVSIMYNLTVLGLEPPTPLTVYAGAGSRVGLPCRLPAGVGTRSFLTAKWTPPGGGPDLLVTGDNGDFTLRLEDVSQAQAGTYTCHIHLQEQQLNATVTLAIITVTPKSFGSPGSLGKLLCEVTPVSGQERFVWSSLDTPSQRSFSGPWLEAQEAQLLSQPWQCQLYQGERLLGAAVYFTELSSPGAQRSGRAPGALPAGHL
As to the kind of experiment: FACS competition: antibody inhibits rhLAG3 binding to MHCII on DAUDI cells. How it is done:
DAUDI cells express high levels of Major Histocompatibility Class II (MHCII) molecules, a natural ligand for LAG3, on the cell surface. DAUDI cells were used to screen for antibodies that inhibit binding of HIS-tagged (ACRO) or biotinylated recombinant human LAG3 protein (rhLAG3) to MHCII expressed on the cell surface.
DAUDI cells were cultured in RPMI w/10% FCS Pen/Strep and Gln and split every 3-4 days at 10^5 cells/ml. Cells were washed 2× with FACS buffer (PBS w/2% FCS), […] at a final concentration of 1×10⁶ cells/ml and seeded at 100 μl per well on 96 well polypropylene plates. Plates were spun at 1500 rpm for 5 minutes and cell pellets were suspended in 50 μl FACS buffer containing 8 point 1:3 dilutions (2× concentrated) of anti-LAG3 antibody variants, starting from high concentration of ˜600 nM. 50 μl FACS buffer containing 10-20 μg/ml of the HIS-tagged rhLAG3 protein or 40 μg/ml of the biotinylated rhLAG3 protein were then added to the cells. Cell were then incubated in ice for 1 hr, washed with FACS buffer and incubated for 1 hr in ice with 50 μl FACS buffer containing 2 μg/ml R-Phycoerythrin-conjugated Streptavidin (eBiosciences) or 1 μg/ml R-Phycoerythrin-conjugated anti-HIS IgG (Abcam). Cell were washed 2× with FACS buffer and fixed for 10 minutes in 200 μl PBS w/2% PFA prior to acquisition.

The target of test [3] is T3, human LAG3-Fc, R&D Systems #2319-L3 (human, UniProt P18627 23-450).
T3 construct: Bought protein; also called Human LAG3 (Biacore); not shown: human Fc of the bought fusion protein
T3 sequence: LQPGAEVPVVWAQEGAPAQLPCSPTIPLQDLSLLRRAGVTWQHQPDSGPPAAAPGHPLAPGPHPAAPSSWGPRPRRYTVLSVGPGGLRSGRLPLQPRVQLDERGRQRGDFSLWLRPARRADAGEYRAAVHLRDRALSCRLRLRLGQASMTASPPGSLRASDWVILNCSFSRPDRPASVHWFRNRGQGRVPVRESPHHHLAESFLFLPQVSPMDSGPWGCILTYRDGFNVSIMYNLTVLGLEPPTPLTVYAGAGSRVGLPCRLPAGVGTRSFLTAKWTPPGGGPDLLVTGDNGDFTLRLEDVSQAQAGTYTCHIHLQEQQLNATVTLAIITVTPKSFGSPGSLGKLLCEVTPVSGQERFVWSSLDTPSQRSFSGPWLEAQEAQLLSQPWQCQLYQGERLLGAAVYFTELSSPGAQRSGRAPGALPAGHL
As to the kind of experiment: SPR (Biacore), antibody captured on anti-Flag chip, human LAG3-Fc analyte, 25 C, 1:1 fit. How it is done: Anti-Flag M2 IgG (Sigma-Aldrich # F9291) was immobilized onto a CMS chip (GE Life Sciences) using amine coupling chemistry (from Amine Coupling Kit, GE Life Sciences). The immobilization steps were carried out at a flow rate of 25 μL/min in 1×HBS-EP+ buffer (GE Life Sciences; 10× Stock diluted before use). The sensor surfaces were activated for 7 min with a mixture of NHS (0.05 M) and EDC (0.2 M). The Anti-Flag M2 IgG was injected over all 4 flow cells at a concentration of 25 μg/mL in 10 mM sodium acetate, pH 4.5, for 7 min. Ethanolamine (1 M, pH 8.5) was injected for 7 min to block any remaining activated groups. An average of 12,000 response units (RU) of capture antibody was immobilized on each flow cell.
Off-rate and Kinetic binding experiments were performed at 25° C. using 1×HBS-EP+ buffer. Test and control antibodies were injected over the Anti-Flag surface at concentrations of 5-10 μg/mL for 12 seconds at a flow rate of 10 μL/min on flow cells 2, 3 and 4, followed by a buffer wash for 30 seconds at the same flow rate. Kinetic characterization of antibody samples was carried out with a single concentration of antigen (for off-rate ranking) or a dilution series of antigen (for kinetic characterization) and 1 injection of 0 nM antigen. After capturing ligand (antibody) on the anti-Flag surface, the analyte (human LAG3-Fc, R&D Systems #2319-L3; or cynomolgus LAG3-Fc, accession #NC_022282.1) was bound at 50, 25, 12.5, 6.25, and 0 nM for 180 seconds, followed by a 600 second dissociation phase at a flow rate of 50 μl/min. Between each ligand capture and analyte binding cycle, regeneration was carried out using 2 injections of 10 mM glycine pH 2.0 for 30 seconds at 30 μL/min, followed by a 30 second buffer wash step.
The data were fit with the Biacore T200 Evaluation software, using a 1:1 Langmuir binding model. KD (affinity, nM) was determined as a ratio of the kinetic rate constants calculated from the fits of the association and dissociation phases.

B1: SRP1449-B07 (scFv)
scFv-Fc: QVQLVESGGGVVQPGRSLRLSCAASGFTFSSYGMHWVRQAPGKGLEWVAVIWYDGSNKYYADSVKGRFTISRDNSKNTLYLQMNSLRAEDTAVYYCAREWAVSSWDYGMDVWGQGTTVTVSSGGGGSGGGGSGGGGS[about 100 residues cut from this listing]FTFGPGTKVDIKAAGSDQ[human IgG1 Fc with changes cut from this listing]
For the molecule B1, the Kd in test [1] was 1.06 nM. For the same molecule, in test [2], the IC50 worked out at 1.2 nM. In test [3], this molecule displayed a dissociation constant (Kd) of 0.676 nM, a koff of 0.000536 s⁻¹ and an on-rate constant (kon) of 794000 M⁻¹ s⁻¹.

B2: SRP1449-F01 (scFv)
scFv-Fc: QVQLVESGGGVVQPGRSLRLSCAASGFTFSSYGMHWVRQAPGKGLEWVAVIWYDGSYKYYADSVKGRFAISRDNSKNTLYLQMNSLRAEDTAVYYCARESEVASWDYGLDVWGQGTTVTVSSGGGGSGGGGSGGGGS[about 100 residues cut from this listing]FGPGTKVDIKAAGSDQ[human IgG1 Fc with changes cut from this listing]
Consider B2, for which the Kd in test [1] came out at 3.37 nM. In addition, in test [2], the IC50 was 1.7 nM. For the same molecule, in test [3], the Kd was 3.1 nM, the koff came to 0.000807 s⁻¹ and the kon stood at 261000 M⁻¹ s⁻¹.

B3: SRP1449-B03 (scFv)
scFv-Fc: QVQLVESGGGVVQPGRSLRLSCAASGFTFSSYGMHWVRQAPGKGLEWVAAIWYDASYKYYADSVKGRFTISRDNSKNTLYLQMNSLRAEDTAVYYCAREWAVASWDYALDVWGQGTTVTVSSGGGGSGGGGSGGGGSEIVLTQSPGTMSLSPGERATLSCRASQSVSSSYLAWYQQKPGQAPRLLIYGASSRATGIPDRFSGSGSGTDFTLTISRLEPEDFAVYYCQQYDRSPLTFGPGTKVDIKAAGSDQ[human IgG1 Fc with changes cut from this listing]
In the case of B3, binding in test [1] was put at a Kd of 1.92 nM. Also, the IC50 in test [2] was found to be 1 nM. In test [3], this molecule came in with a Kd of 0.64 nM, a koff of 0.000302 s⁻¹ and a kon of 472000 M⁻¹ s⁻¹.

B4: SRP1449-G09.2 (scFv)
scFv-Fc: QVQLVESGGGVVQPGRSLRLSCAASGFTFSSYGMHWVRQAPGKGLEWVAVIWYDGSYKYYADSVKGRFTISRDNSKNTLYLQMNSLRAEDTAVYYCAREEAPENWDYALDVWGQGTTVTVSSGGGGSGGGGSGGGGS[about 100 residues cut from this listing]SFGPGTKVDIKAAGSDQ[human IgG1 Fc with changes cut from this listing]
Take B4: the equilibrium dissociation constant (Kd) in test [1] is 0.32 nM. Also, the IC50 in test [2] was 1.1 nM. In test [3], this molecule registered a Kd of 0.0412 nM, a koff of 6.78e-05 s⁻¹ and a kon of 1.65e+06 M⁻¹ s⁻¹.

B5: SRP1449-D05 (scFv)
scFv-Fc: QVQLVESGGGVVQPGRSLRLSCAASGFTFRSFGMHWVRQAPGKGLEWVAVIWYDGSVKYYADSVKGRFTISRDNSKNTLYLQMNSLRAEDTAVYYCAREWADVSWDAGLDVWGQGTTVTVSSGGGGSGGGGSGGGGS[about 100 residues cut from this listing]KFGPGTKVDIKAAGSDQ[human IgG1 Fc with changes cut from this listing]
As to B5, in test [1], the affinity, expressed as Kd, was 1.54 nM. Further, in test [2], the IC50 was determined as 2.3 nM. In test [3], this molecule had a Kd of 1.36 nM, a koff of 0.000627 s⁻¹ and a kon of 460000 M⁻¹ s⁻¹.
